Laboratory results reported in patent US20220313681A1, “NOVEL CELL METABOLISM MODULATING COMPOUNDS AND USES THEREOF FOR THE TREATMENT OF VIRAL DISEASES” (CRESCENTA BIOSCIENCES, priority 2020, published 2022).
At least one read-out could not be matched to a standard name with certainty.

What follows are compounds tested on human coronavirus OC43 (assay: Antiviral activity: human coronavirus OC43 replication in differentiated 3T3-L1 mouse adipocytes, virus titer by TCID50 assay). Conditions: 10 μM compound added one hour after infection; differentiated 3T3-L1 mouse adipocytes infected with OC43 at 0.05 TCID50 per cell; medium collected 24 hours after infection; 35° C.
Format: cell-based

Compound | Antiviral activity (median fold reduction of virus titers compared to vehicle control)
CCCCCCc1ccc2nc([C@H]3C[C@H]3C(=O)O)cc(-c3ccccc3)c2c1 (relative stereo) [Compound 10, cis-2-(6-hexyl-4-phenylquinolin-2-yl)cyclopropane-1-carboxylic acid] | C (between 2- to 9-fold)
CCCCc1ccc2nc(N(C)CC(=O)O)cc(-c3ccc(C)cc3)c2c1 [Compound 1, 2-{[6-butyl-4-(4-methylphenyl)quinolin-2-yl](methyl)amino}acetic acid] | B (between 10- to 99-fold)
CCCCc1ccc2nc(N(C)CC(=O)O)cc(-c3ccc(F)cc3)c2c1 [Compound 2, 2-{[6-butyl-4-(4-fluorophenyl)quinolin-2-yl](methyl)amino}acetic acid] | B (between 10- to 99-fold)
CCCCCCCCc1ccc2nc(N(C)CC(=O)O)cc(-c3ccccc3)c2c1 [Compound 3, 2-[methyl(6-octyl-4-phenylquinolin-2-yl)amino]acetic acid] | A (reduced virus titers >100-fold)
CCCCCCCCc1ccc2nc(N(C)CC(=O)O)cc(Oc3ccc(F)cc3)c2c1 [Compound 4, 2-{[4-(4-fluorophenoxy)-6-octylquinolin-2-yl](methyl)amino}acetic acid] | B (between 10- to 99-fold)
CCCCCCCCc1ccc2nc(N(C)CC(=O)O)cc(Oc3cccnc3)c2c1 [Compound 5, 2-{methyl[6-octyl-4-(pyridin-3-yloxy)quinolin-2-yl]amino}acetic acid] | A (reduced virus titers >100-fold)
CCCCc1ccc2nc(N(C)CC(C)C(=O)O)cc(-c3ccc(F)cc3)c2c1 (stereo not drawn) [Compound 6, 3-{[6-butyl-4-(4-fluorophenyl)quinolin-2-yl](methyl)amino}-2-methylpropanoic acid] | C (between 2- to 9-fold)
CN(CC(=O)O)c1cc(-c2ccccc2)c2cc(CCc3ccccc3)ccc2n1 [Compound 7, 2-{methyl[4-phenyl-6-(2-phenylethyl)quinolin-2-yl]amino}acetic acid] | B (between 10- to 99-fold)
CCCCCCc1ccc2nc(N(C)Cc3nn[nH]n3)cc(-c3ccccc3)c2c1 [Compound 8, 6-hexyl-N-methyl-4-phenyl-N-[(2H-1,2,3,4-tetrazol-5-yl)methyl]quinolin-2-amine] | A (reduced virus titers >100-fold)
CCCCCCCc1ccc2nc(N(C)CC(=O)O)cc(-c3ccccc3)c2c1 [Compound 9, 2-[(6-heptyl-4-phenylquinolin-2-yl)(methyl)amino]acetic acid] | A (reduced virus titers >100-fold)
CCCCCCc1ccc2nc(N3CCC(C)(C(=O)O)C3)cc(-c3ccccc3)c2c1 (stereo not drawn) [Compound 11, 1-(6-hexyl-4-phenylquinolin-2-yl)-3-methylpyrrolidine-3-carboxylic acid] | B (between 10- to 99-fold)
CCCCc1ccc2nc(OC(C)C(=O)O)cc(-c3cccc(C#N)c3)c2c1 (stereo not drawn) [Compound 12, 2-{[6-butyl-4-(3-cyanophenyl)quinolin-2-yl]oxy}propanoic acid] | B (between 10- to 99-fold)
CN(CC(=O)O)c1cc(-c2ccccc2)c2cc(CCc3ccc4ncccc4c3)ccc2n1 [Compound 13, 2-[methyl({4-phenyl-6-[2-(quinolin-6-yl)ethyl]quinolin-2-yl})amino]acetic acid] | C (between 2- to 9-fold)
CCCCCCc1ccc2nc(N(C)CC(=O)O)cc(-c3ccccc3)c2c1 [Compound 14, 2-[(6-hexyl-4-phenylquinolin-2-yl)(methyl)amino]acetic acid] | A (reduced virus titers >100-fold)
COc1cccc(CCc2ccc3nc(N(C)CC(=O)O)cc(-c4ccccc4)c3c2)c1 [Compound 15, 2-({6-[2-(3-methoxyphenyl)ethyl]-4-phenylquinolin-2-yl}(methyl)amino)acetic acid] | B (between 10- to 99-fold)
CN(CC(=O)O)c1cc(-c2ccccc2)c2cc(CCc3ncccn3)ccc2n1 [Compound 16, 2-[methyl({4-phenyl-6-[2-(pyrimidin-2-yl)ethyl]quinolin-2-yl})amino]acetic acid] | C (between 2- to 9-fold)
CCCc1ccc2nc(N(C)CC(=O)O)cc(-c3cccc(C#N)c3)c2c1 [Compound 17, 2-{[4-(3-cyanophenyl)-6-propylquinolin-2-yl](methyl)amino}acetic acid] | C (between 2- to 9-fold)
CCCCCCc1ccc2c(-c3ccccc3)cc(N(C)CC(=O)O)nc2c1 [Compound 18, 2-[(7-hexyl-4-phenylquinolin-2-yl)(methyl)amino]acetic acid] | B (between 10- to 99-fold)
